Laboratory results as given in publication PMC4336329 (PLoS ONE, 2015).
The campaign covered roughly 310,000 compounds. About 14,000 (4.5%) showed an effect of 50% or more. The effect is printed as a negative number. The list shows a part of the results.

Target: human ether-à-go-go-related gene (hERG) potassium channel (human, UniProt Q12809)
Assay: primary screen, population patch clamp on CHO cells stably expressing hERG
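Note: peak tail current of the secondary pulse compared with the same well before compound.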

human ether-à-go-go-related gene (hERG) potassium channel, sequence (Q12809 whole entry, looked up): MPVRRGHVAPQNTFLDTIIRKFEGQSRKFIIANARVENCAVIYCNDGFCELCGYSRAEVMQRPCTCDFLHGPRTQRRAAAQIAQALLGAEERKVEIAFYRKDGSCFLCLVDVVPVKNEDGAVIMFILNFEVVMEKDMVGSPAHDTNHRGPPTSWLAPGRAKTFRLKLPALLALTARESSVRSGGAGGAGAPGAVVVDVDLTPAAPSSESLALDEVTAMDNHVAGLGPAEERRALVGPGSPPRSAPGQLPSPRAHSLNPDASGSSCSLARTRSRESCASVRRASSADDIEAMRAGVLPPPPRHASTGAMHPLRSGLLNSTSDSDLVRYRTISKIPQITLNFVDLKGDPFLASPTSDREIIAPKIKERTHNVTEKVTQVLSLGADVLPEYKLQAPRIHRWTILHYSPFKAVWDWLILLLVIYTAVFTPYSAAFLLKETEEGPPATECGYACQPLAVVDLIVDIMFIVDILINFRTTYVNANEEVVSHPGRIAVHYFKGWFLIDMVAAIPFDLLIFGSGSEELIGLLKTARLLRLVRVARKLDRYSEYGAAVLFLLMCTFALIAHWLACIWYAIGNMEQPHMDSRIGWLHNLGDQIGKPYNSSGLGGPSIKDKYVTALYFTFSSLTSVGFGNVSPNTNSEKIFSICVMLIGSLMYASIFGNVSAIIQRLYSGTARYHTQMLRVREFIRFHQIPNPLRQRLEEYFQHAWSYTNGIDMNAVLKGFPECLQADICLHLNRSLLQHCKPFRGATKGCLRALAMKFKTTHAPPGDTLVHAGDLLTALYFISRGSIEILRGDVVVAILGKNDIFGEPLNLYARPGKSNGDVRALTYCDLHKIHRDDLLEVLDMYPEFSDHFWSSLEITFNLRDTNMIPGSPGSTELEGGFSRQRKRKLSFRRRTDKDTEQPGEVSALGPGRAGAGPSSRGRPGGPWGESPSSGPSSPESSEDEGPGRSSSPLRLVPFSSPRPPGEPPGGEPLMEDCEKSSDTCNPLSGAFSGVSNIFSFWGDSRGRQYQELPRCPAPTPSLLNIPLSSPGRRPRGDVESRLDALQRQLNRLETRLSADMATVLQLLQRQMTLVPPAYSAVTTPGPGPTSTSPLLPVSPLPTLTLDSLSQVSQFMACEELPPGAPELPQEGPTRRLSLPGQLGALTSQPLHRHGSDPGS

First: Cc1nn(-c2ccccc2)c(C)c1C(=O)NCc1ccccc1F
Second: COc1ccc(C(CNC(=O)c2c(C)nn(Cc3ccccc3)c2Cl)N2CCOCC2)cc1 (centres unmarked)
The “hERG current change (%, negative = inhibition) at 10uM” value of the first is higher: 3.78% for the first, -20.8% for the second.

Compared with CC(C)(C)n1nnnc1C(c1cccs1)N(Cc1cccnc1)Cc1ccccc1Cl (centres unmarked), CCN(Cc1cc2ccccc2[nH]c1=O)C(=O)c1cccnc1 is higher in “hERG current change (%, negative = inhibition) at 10uM” value: -11.4% for the first, -1.45% for the second.

Compared with Cc1ccccc1C(=O)N1CCC(C(=O)OCc2ccccc2Cl)CC1, Cc1cccc(OCC(=O)N2CCC(c3ccccc3)C2)c1 (centres unmarked) is higher in “hERG current change (%, negative = inhibition) at 10uM” value: -40.3% for the first, -13.1% for the second.

First: CCOC(=O)c1nnn(-c2nonc2N)c1CN(C)C1CCCCC1
Second: CCOC(=O)c1sc(SC)nc1N
The “hERG current change (%, negative = inhibition) at 10uM” value of the first is lower: 4.08% for the first, 17.8% for the second.

Compared with COc1ccc(NC(=O)CN2CCCC2)cc1, COc1ccc(NC(=O)CN2C(=O)CSc3ccc(S(=O)(=O)N4CCCC4)cc32)cc1OC is lower in “hERG current change (%, negative = inhibition) at 10uM” value: 15.7% for the first, -1.88% for the second.

Going from O=C(Nc1nnc(S(=O)(=O)N2CCCCCC2)s1)c1cccc(Br)c1 to COc1ccc(C(=O)NCC(c2ccco2)N2CCCC2)cc1S(=O)(=O)N1CCCCC1C (centres unmarked), the “hERG current change (%, negative = inhibition) at 10uM” value falls from 14.4% to -36.8%.

First: O=C(c1ccccn1)N1CCN(C(=O)c2ccccn2)CC1
Second: Cc1cc(S(=O)(=O)N2CCN(c3ccccn3)CC2)ccc1F
The “hERG current change (%, negative = inhibition) at 10uM” value of the first is lower: 1.19% for the first, 6.15% for the second.

Compared with COc1ccc(-c2cn3nc(SCC(=O)NCC4CCCO4)ccc3n2)cc1 (centres unmarked), COc1cc2c(=O)n(CCC(=O)NCC3CCCO3)c(=O)n(CC(=O)Nc3ccccc3C)c2cc1OC (centres unmarked) is lower in “hERG current change (%, negative = inhibition) at 10uM” value: -16.9% for the first, -36.7% for the second.

First: CC(On1c(-c2ccccc2)nc2ccc(Cl)cc21)C(=O)O (centres unmarked)
Second: O=S(=O)(O)c1nc2ccccc2n1Cc1ccc(Cl)cc1
The “hERG current change (%, negative = inhibition) at 10uM” value of the first is higher: 73.3% for the first, 9.66% for the second.

Compared with O=C(C[n+]1cc(Br)cc(Br)c1)c1ccc(Cl)cc1.[Br-], O=C(COC(=O)CNC(=O)c1ccc(Cl)cc1)Nc1ccc2c(c1)OCCO2 is higher in “hERG current change (%, negative = inhibition) at 10uM” value: -23.3% for the first, 9.35% for the second.

Going from O=C(NC1CC(=O)c2sccc21)c1cccc(C(F)(F)F)c1 (centres unmarked) to Cc1cc(NC(=O)c2ccco2)ccc1-n1cnnn1, the “hERG current change (%, negative = inhibition) at 10uM” value rises from -14.4% to -3.71%.

First: CCOC(=O)c1cc(NC(=O)c2ccco2)ccc1N1CCOCC1
Second: CCc1noc(C)c1C(=O)Nc1cc(S(=O)(=O)N2CCOCC2)ccc1OC(C)C
The “hERG current change (%, negative = inhibition) at 10uM” value of the first is higher: -0.103% for the first, -45.1% for the second.

First: COC(=O)c1cc(S(=O)(=O)N2CCN(Cc3ccccc3)CC2)cn1C
Second: COc1ccccc1CNC(=O)N1CCN(S(=O)(=O)c2ccc(C)cc2)CC1
The “hERG current change (%, negative = inhibition) at 10uM” value of the first is lower: -12.9% for the first, 28.9% for the second.

Going from COCCCNC(=O)C(C#N)c1nc2ccccc2nc1N1CCCC1 (centres unmarked) to Cl.c1ccc2c(c1)nc(N1CCCCC1)c1ccccc12, the “hERG current change (%, negative = inhibition) at 10uM” value falls from -0.404% to -2.67%.

Going from CCOC(=O)C1(Cc2ccccc2C(F)(F)F)CCN(C(C)CCn2cccn2)CC1 (centres unmarked) to CCCCc1ncc(CN2CCC(CC3CCCCO3)(C(=O)OCC)CC2)[nH]1 (centres unmarked), the “hERG current change (%, negative = inhibition) at 10uM” value rises from -65.6% to -45%.

Going from Cc1cc(NC(=O)CSc2nnnn2C)n(-c2ccccc2)n1 to Cn1c(SCC(=O)O)nnc1-c1ccc2ncccc2c1, the “hERG current change (%, negative = inhibition) at 10uM” value rises from -10.8% to 12.9%.

First: Cc1cc(C)n(CC(=O)O)n1
Second: Cc1nn(CC(=O)NC2CCCC2)c(C)c1[N+](=O)[O-]
The “hERG current change (%, negative = inhibition) at 10uM” value of the first is higher: 9.49% for the first, 6.03% for the second.

Going from CCOc1cc(CNCC(O)c2ccccc2)cc(Cl)c1OC.Cl (centres unmarked) to COc1cccc(NC(C(=O)Nc2cccc(C(C)=O)c2)c2ccccc2)c1 (centres unmarked), the “hERG current change (%, negative = inhibition) at 10uM” value rises from -7.78% to -7.56%.

Compared with CC(C)CC(C(=O)OCC(=O)c1c(N)n(C)c(=O)n(C)c1=O)N1C(=O)c2ccccc2C1=O (centres unmarked), CC(C(=O)O)N1C(=O)c2ccccc2C1=O (centres unmarked) is higher in “hERG current change (%, negative = inhibition) at 10uM” value: -27% for the first, -1.85% for the second.

Going from CC(C)C(NS(=O)(=O)c1cccc2nsnc12)C(=O)N1CCn2c1nc1ccccc12 (centres unmarked) to COCCn1c(SCC(=O)Nc2ccc(NC(C)=O)cc2)nc2ccccc2c1=O, the “hERG current change (%, negative = inhibition) at 10uM” value rises from -14.2% to 12.1%.

First: C=CCNC(=S)N/N=C(\C)c1ccccn1
Second: CC(=O)NCc1c(Cl)cccc1-n1cccc1
The “hERG current change (%, negative = inhibition) at 10uM” value of the first is lower: -16.3% for the first, 11.6% for the second.

Going from Cc1ccc(CSc2ccc(-c3ccc4c(c3)OCO4)nn2)cc1 to CN(C)c1ccc(CN(C(=O)c2cc3ccccc3oc2=O)C2CCS(=O)(=O)C2)cc1 (centres unmarked), the “hERG current change (%, negative = inhibition) at 10uM” value falls from 0.231% to -11.8%.

First: Cc1ccccc1N=C1Nc2ccccc2CS1
Second: O=C1COc2ccc(C(=O)/C=C/c3ccccc3)cc2N1
The “hERG current change (%, negative = inhibition) at 10uM” value of the first is higher: 10.5% for the first, 8.06% for the second.

Compared with CCn1c(=O)n(CC)c2cc(N3CCCC3)c(NC(=O)c3ccc(F)cc3)cc21, CC/C(=N/NC(=O)c1ccc(Br)cc1)c1ccc(OCCN2CCOCC2)cc1 is lower in “hERG current change (%, negative = inhibition) at 10uM” value: -4.99% for the first, -23.2% for the second.

Compared with CC1=C(CC(=O)O)c2cc(F)ccc2/C1=C\c1ccc(S(C)=O)cc1 (centres unmarked), COc1ccc(CS(=O)(=O)/C(Cl)=C(/Cl)C(=O)Nc2ccc(OC)nc2)cc1 is higher in “hERG current change (%, negative = inhibition) at 10uM” value: -0.957% for the first, 11.6% for the second.

Going from Cc1nnc(SCc2cc(=O)[nH]c(N3CCCCC3)n2)s1 to CC1CCCCN1C(=O)CSc1nnc(-c2ccccc2F)o1 (centres unmarked), the “hERG current change (%, negative = inhibition) at 10uM” value falls from 5.72% to -0.439%.

Going from CC(NC(=O)OC(C)(C)C)C(=O)Oc1ccc2ccc(=O)oc2c1 (centres unmarked) to Cc1ccc(O)c(C(=O)c2cc(C(=O)NCCC(C)C)c(=O)n(CCC(C)C)c2)c1, the “hERG current change (%, negative = inhibition) at 10uM” value rises from 7.55% to 12.6%.

Going from O=C(Nc1ccccc1C(=O)Nc1ccccc1)c1ccccc1Br to COc1cccc(NC(=O)CN(C)C(=O)CNC(=O)c2ccc(Oc3ccccc3)cc2)c1, the “hERG current change (%, negative = inhibition) at 10uM” value falls from 16.2% to -31.4%.

First: Cc1cccc(-n2c(-c3ccc(Br)o3)n[nH]c2=S)c1
Second: O=c1c2ccccc2cnn1Cc1n[nH]c(=S)n1-c1cc(Cl)cc(Cl)c1
The “hERG current change (%, negative = inhibition) at 10uM” value of the first is higher: 17.5% for the first, -2.93% for the second.

Compared with Cc1cc(N/N=C/c2ccc([N+](=O)[O-])o2)nc2ccccc12, COc1cccc(/C=N/n2nnc3c(cnn3-c3ccccc3)c2=O)c1 is higher in “hERG current change (%, negative = inhibition) at 10uM” value: 1.15% for the first, 6.82% for the second.

First: CCCCCC1CCC(c2ccc(C(N)=O)cc2)CC1 (centres unmarked)
Second: CCOc1ccc(NC(=O)C2CCC(N3C(=O)C4CC=CCC4C3=O)CC2)cc1 (centres unmarked)
The “hERG current change (%, negative = inhibition) at 10uM” value of the first is higher: 5.27% for the first, 4.51% for the second.

Compared with CS(=O)(=O)N1CCC(C(=O)Nc2ccc(Cl)c(C(F)(F)F)c2)CC1, Cc1ccc(S(=O)(=O)C2CCOC2=O)cc1 (centres unmarked) is higher in “hERG current change (%, negative = inhibition) at 10uM” value: -10.4% for the first, 3.23% for the second.

First: Cl.c1csc(CN2CCNCC2)c1
Second: Cl.c1ccc(SCCOCCN2CCOCC2)cc1
The “hERG current change (%, negative = inhibition) at 10uM” value of the first is higher: 18.7% for the first, 14.3% for the second.

Compared with O=C(O)C1CCCCC1C(=O)NC(c1ccccc1)c1ccccc1 (centres unmarked), O=C(NCc1cccnc1)C1c2ccccc2C(=O)N1C1CCCCCCC1 (centres unmarked) is higher in “hERG current change (%, negative = inhibition) at 10uM” value: 1.81% for the first, 4.9% for the second.

First: O=C1c2cccc([N+](=O)[O-])c2C(=O)N1CCO
Second: CCCCc1nnc(NC(=O)CN2C(=O)c3ccccc3C2=O)s1
The “hERG current change (%, negative = inhibition) at 10uM” value of the first is higher: 20.2% for the first, -4.47% for the second.

Compared with O=[N+]([O-])c1ccc(/C=N\N2CCN(c3ccc(Cl)cc3)CC2)cc1, Cc1oc(-c2ccccc2Cl)nc1CS(=O)CC(=O)N1CCN(c2ccccc2)CC1 (centres unmarked) is lower in “hERG current change (%, negative = inhibition) at 10uM” value: 16.8% for the first, -36.5% for the second.

Compared with Cc1ccc(N(C(=O)CNC(=O)c2ccco2)C(C(=O)NC2CCCCC2)c2cccnc2)cc1F (centres unmarked), Cc1cc(NC(=O)CCCC(=O)N(c2ccccc2)C(C(=O)NC2CCCCC2)c2cccs2)no1 (centres unmarked) is lower in “hERG current change (%, negative = inhibition) at 10uM” value: 6.85% for the first, -8.03% for the second.

First: CCOC(=O)c1sc(Nc2nc3c(OC)cccc3s2)cc1C
Second: CCNC(=O)COC(=O)COc1ccc(Cl)cc1C
The “hERG current change (%, negative = inhibition) at 10uM” value of the first is lower: -0.888% for the first, 7.93% for the second.

Compared with CC(OC(=O)c1nn(C)c(=O)c2ccccc12)C(=O)Nc1ccc(S(N)(=O)=O)cc1 (centres unmarked), COc1cc([N+](=O)[O-])ccc1NC(=O)COC(=O)c1ccc(NC(N)=O)cc1 is lower in “hERG current change (%, negative = inhibition) at 10uM” value: 11.6% for the first, 11% for the second.

First: O=C(NCC1CCCO1)[C@@H]1CSC2c3ccccc3C(=O)N21 (some centres unmarked)
Second: c1ccc2c(c1)nc1n2CC2CON(C3CCCCC3)C12 (centres unmarked)
The “hERG current change (%, negative = inhibition) at 10uM” value of the first is higher: 6.89% for the first, -2.24% for the second.

First: Cc1cccc(-n2nnc3c(=O)n(Cc4ccccn4)cnc32)c1
Second: CCCN1C(=O)C(Cc2nc3ccccc3c(=O)n2-c2ccccc2)c2cc(C)ccc21 (centres unmarked)
The “hERG current change (%, negative = inhibition) at 10uM” value of the first is higher: -7.65% for the first, -14.6% for the second.

First: COc1ccc(NC(=O)CN(c2ccc(C)cc2)S(=O)(=O)c2c(C)nn(C)c2C)cc1OC
Second: CCN(CC)S(=O)(=O)c1ccc2c(c1)nc(CCC(=O)OCC(=O)Nc1cc(OC)cc(OC)c1)n2C
The “hERG current change (%, negative = inhibition) at 10uM” value of the first is higher: 12% for the first, -48.5% for the second.

Compared with COc1cc(C(=O)NCC(=O)OCC(=O)c2ccc[nH]2)cc(OC)c1OC, COc1ccc(C2C(C#N)=C(N)OC3=C2C(=O)CC(C)(C)C3)cc1OC (centres unmarked) is lower in “hERG current change (%, negative = inhibition) at 10uM” value: 8.47% for the first, -9.48% for the second.

Compared with Cc1ccc(S(=O)(=O)Nc2cccnc2)cc1C, CC(C)N(CC#CCC1(O)c2ccccc2-c2ccccc21)CCO is lower in “hERG current change (%, negative = inhibition) at 10uM” value: 13.6% for the first, 2.43% for the second.

With C/C(=N\Nc1nc2c(s1)CCCC2)c1ccc(Cl)cc1.Cl the “hERG current change (%, negative = inhibition) at 10uM” value was -12.6%.
